Some of the results follow.
T1: UNK ZnF1-3 (human, UniProt Q9C0B0 31-174)
T1 sequence: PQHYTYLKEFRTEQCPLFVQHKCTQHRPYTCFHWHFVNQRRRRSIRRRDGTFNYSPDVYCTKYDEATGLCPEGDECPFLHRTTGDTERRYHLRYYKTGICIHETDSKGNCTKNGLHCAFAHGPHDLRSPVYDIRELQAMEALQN

B1: chr4:130320001:130320002:+_ENSMUSG00000028580_ENSMUST00000105991|mus_mus|FALSE|FALSE (ssRNA)
RNA: GGGAGUUCUACAGUCCGACGAUCCGCAGCCUGGAGGAUUUCAUUGAAGACAAGCUGGCGCUCAGCUGCUGUGGCACGCUCUAGUUUCAGCUGAAUGAAUCUAGAGCCAUGCUGGUCUUGAGAAAAUUCCAUUAUAUGCCCAGCCAACAGAGGAUUGAGCAUCA
B2: chr1:23645023:23645024:-_ENSG00000125944_ENST00000302271|hu_mus|FALSE|FALSE (ssRNA)
RNA: GGGAGUUCUACAGUCCGACGAUCCUUUGCCAUGACUUCUGGAUCCGGCUCCUCCACGGGGUCAGCCCACUCUACUGUAACCACAUUUCCCCACACUUUGACUUUUCCACUCAUCAGCCGGCGUCUGGCUUGUGCUGCUGACUUCAACAGAGGAUUGAGCAUCA
B3: 21906080_21940665_881_3pUTR_ENSG00000078403_ENST00000307729|human|control|control (ssRNA)
RNA: GGGAGUUCUACAGUCCGACGAUCAUGCAGGUGAUGGUUCUGGCUGCUUCUUGUGUUUCUGUUUGUGUUUGUCCUUCUCUUUAUAUUUUUUUUUCUCUUUCUCAUGAUGUUUAUCCUGAGAGUGAGAGGAAGAAUCACUUAAACCAACAGAGGAUUGAGCAUCA
B4: chr11:66627819:66627820:+_ENSG00000173621_ENST00000309602|hu_hu|FALSE|FALSE (ssRNA)
RNA: GGGAGUUCUACAGUCCGACGAUCGGUGGCUGUGAGCACCUGUUGGAGGGGCCUGCCCUUACCCUGGUCUGGAGGCCAGAACCGAGGAAAGGGCUCCCUGCCCCUCCAAGUACACAGGGGAGCCUGAGGUACUGAGAAUAAAAACAACAGAGGAUUGAGCAUCA
B5: 71633814_71636354_1509_CDS_ENSMUSG00000006273_ENSMUST00000006435|mouse|control|control (ssRNA)
RNA: GGGAGUUCUACAGUCCGACGAUCAUAAACAGUUCGGUUUUCAUAGGGACCCUGAGUAAUGAAGUUCUUCUCAAACUUCUGCAGAAAUUCCAGGUAAAGGAGAUCAUCUGAGGUCAGGGCUUCCUCUCCCACCACGGCUUUCAUCAACAGAGGAUUGAGCAUCA
B6: chr11:75578393:75578394:+_ENSMUSG00000020849_ENSMUST00000067664|mus_hu|FALSE|FALSE (ssRNA)
RNA: GGGAGUUCUACAGUCCGACGAUCGACACAGUAAUGCUGAAAAAGCCUCUAUGUAGUCCUGUUAGUGUCUUAAAGAACCUAAAAGCUGGGACCAGUAAAAUCCACAGAAAUUCACUCUUGCCUUUAAGAACUUUUGAAAACUGUCAACAGAGGAUUGAGCAUCA
B7: chr4:175223256:175223257:+_ENSG00000164118_ENST00000503780|hu_hu|FALSE|FALSE (ssRNA)
RNA: GGGAGUUCUACAGUCCGACGAUCAAAUUGAUCACGAAGAAGCUUAUAGACAGCAUCUAUAAAGCGCAAGUCAUUUUUUGCUAUGAGCUCUACAUUGGAUUCCAUUAUAAGUUCUGUUACAUAAGGUGAGUAUGAGGUAAAAGACAACAGAGGAUUGAGCAUCA
B8: 10830402_10830522_195_5pUTR_ENSG00000110321_ENST00000339995|human|control|control (ssRNA)
RNA: GGGAGUUCUACAGUCCGACGAUCAGAGGAGUCGCUGCUGCAGCCGCCACUCGGUACCCGCUGCCACCUCCAUAGAGCUCCGACUCACUGCUGGCGCUAAGGCGUGUCUGAAGCCGAACUUAUCACUCUUGGGGCAGCCGAACCCAACAGAGGAUUGAGCAUCA
B9: chr11:77336104:77336105:-_ENSG00000074201_ENST00000525064|hu_mus|hu_hu_hu_mus_False|18_98 (ssRNA)
RNA: GGGAGUUCUACAGUCCGACGAUCCUCACACAUUGCUGUGAACAUUGCCUCCAAUGCUGACUUAUCACUGGGCACAAAUCGAAAUUCAGAAAUGGGUUCAACAUCAUCAUUGUCUUCUUCCUCUUCUUCAGAGAGAGGUUCUUUCAACAGAGGAUUGAGCAUCA
B10: 181729411_181733545_326_5pUTR_ENSMUSG00000026491_ENSMUST00000027768|mouse|control|control (ssRNA)
RNA: GGGAGUUCUACAGUCCGACGAUCUUCUGGGAAAUGCAGGAGAUCACUAGUCACUUGAGCUGUCAAGUCUUGCAUACUGCCACUGAGCCCGCGGGCCAGGCCGCCAAGGGCCCCGGCGUCGCUGCUUCCGUGCGGUCCGUCACACAACAGAGGAUUGAGCAUCA
B11: chr10:1038518:1038519:+_ENSG00000107937_ENST00000545048|hu_hu|hu_hu_hu_mus_False|1_48 (ssRNA)
RNA: GGGAGUUCUACAGUCCGACGAUCCAGUCUGUCAUGGUAAUUCUGUUGAGUAAAUUUGACUUUUCUCAUAUAAAAAUGUCGAAUCCGAUGUAUUUGGUAAUGUUUAUGAAUAACCGUUGGAGUCUUUCGUUGAGUCUUCGACAACAACAGAGGAUUGAGCAUCA
B12: 179884977_179887919_1089_3pUTR_ENSMUSG00000039050_ENSMUST00000040668|mouse|control|control (ssRNA)
RNA: GGGAGUUCUACAGUCCGACGAUCAAAGAGCUUCUUCCUGUUUUUGUCUUGAAUGUACCCUUCUACUCUGUGAAGUUCCUUCCCAAACAAUCCACAAGGCUUGAAGUGAAGUAUACACUUAUCUCCAGUUCUGUGAUUUACAAUCAACAGAGGAUUGAGCAUCA
B13: chr4:99338562:99338563:+_ENSG00000138698_ENST00000453712|hu_hu|motif|central (ssRNA)
RNA: GGGAGUUCUACAGUCCGACGAUCUCCAGCAAGCUGUAGCUGGUGGUUAUUUGAUGGGAUCCAAGAGAGUACCCUUUGAAAUACACGGCCUUUUCCUCCUUCAAAUAACUUCUGCAUGGAUUCAUCUCCAAGAAGUAAUAAAACCAACAGAGGAUUGAGCAUCA
B14: chr7:149068622:149068623:-_ENSMUSG00000025139_ENSMUST00000001950|mus_hu|mus_mus_mus_hu_False|68_88 (ssRNA)
RNA: GGGAGUUCUACAGUCCGACGAUCGUGAGGCCUCUGAGUGUGGCUUGUGCUCUGCAGUGGGUUAGAGCUGCUGGUAACACGGAACAUACCAUCUAGAACGUUCCAGUCCCGCCUGACACCUUCAUUCCCAAUGGAGAAGAAAUCCAACAGAGGAUUGAGCAUCA
B15: 29589776_29605605_832_3pUTR_ENSMUSG00000038084_ENSMUST00000160597|mouse|control|control (ssRNA)
RNA: GGGAGUUCUACAGUCCGACGAUCUACUUUAACUGAGUAUGCAGAAGUUCUUCUUGAAGUUGGUCAAUCUUUUCUUUGUCUGACACCUUCCUGUAAUGCUUGUCACUUUCAGAUCCAUGAUCUGUUGCUCGAAAUGCUGUUUCUCAACAGAGGAUUGAGCAUCA
B16: chr16:47005550:47005551:-_ENSG00000069345_ENST00000563158|hu_hu|FALSE|FALSE (ssRNA)
RNA: GGGAGUUCUACAGUCCGACGAUCUAAAGAAAAGGUAAAAAUAAAAAUAAUUGCAUUUUCAAGUAGAAGAGUGGGGAGAAGCUACAGGAAUCCAGAAUCCAUUUAAUUUUUGUCUCCUGCAUUUGGAUUCUUAUCAGGAUGAUACAACAGAGGAUUGAGCAUCA
B17: 205779317_205779437_1207_CDS_ENSG00000133065_ENST00000367137|human|control|control (ssRNA)
RNA: GGGAGUUCUACAGUCCGACGAUCGCCACGGUCUGUGCUGACGUCGUCACUUUCGUUGCUCUGGCUCCCGUUCUCCAGCAGGGCGUCCUCCUCCCGAACCCCCUUGGCGUUGGCCCGAGACUCAAUCACCACCUCUACCCCAGCCAACAGAGGAUUGAGCAUCA
B18: chr20:43533646:43533647:+_ENSG00000166913_ENST00000353703|hu_hu|FALSE|FALSE (ssRNA)
RNA: GGGAGUUCUACAGUCCGACGAUCGAAAUUUAGUGCCAGACCAAGACGAAUUGGGUGUGUAGGCUGCAUUUCUUUCUUACUAAUUUCAAAUGCUUCCUGGUAAGCCUGCUGGGAGUUCGACACAGUGGUUUGUUUGUUGUCUCCCAACAGAGGAUUGAGCAUCA
B19: chr2:216981417:216981418:+_ENSG00000079246_ENST00000392132|hu_hu|hu_hu_hu_mus_True|48_68 (ssRNA)
RNA: GGGAGUUCUACAGUCCGACGAUCCUGAUACUGGUCCUUGCCAGCAAGGGCAUUAUCAGUGCCAUCUGUACCAAACAGGACUAACGCAAUCUCAUCCUUGCUCUCCGAAAAUACCUGUCGUUGGACAAACAUAGUCAUCACUUUCAACAGAGGAUUGAGCAUCA
B20: chr16:21666878:21666879:+_ENSG00000197006_ENST00000396014|hu_mus|FALSE|FALSE (ssRNA)
RNA: GGGAGUUCUACAGUCCGACGAUCUUUAAAAACACUCCCUUACACACUACAAAGAAAGAAUUAGUAUUUUGGCUUUUUAAAUUCCUACAUGAUACUGAGAAUGACAGUCCCCAGAGGUCCCCCUCACAUCACUGGAUGCAUCUCCAACAGAGGAUUGAGCAUCA
B21: chr6:86475052:86475053:-_ENSMUSG00000051695_ENSMUST00000053015|mus_mus|FALSE|FALSE (ssRNA)
RNA: GGGAGUUCUACAGUCCGACGAUCCUCAUUGAUGUUGGCGCCUUGGCGCCCGAUUAUGCAGCCGAUUAAGUUAUUUGGAAUGGUGAGUUCAUGGGUGGUUUGAGUAGAUGCAUCCAAACUUGCCCAAUAGCCUUUCACCUCUGGCAACAGAGGAUUGAGCAUCA
B22: chr1:163112212:163112213:-_ENSG00000143248_ENST00000313961|hu_hu|hu_hu_hu_mus_False|38_38 (ssRNA)
RNA: GGGAGUUCUACAGUCCGACGAUCUUUUAUUAUCAGUAAGAGUGAGUUACAUACUAGGCAAAGUAUUGGAUACAAUAAUCAGGAAACAAACACUAUUUUUCUUGAAUUUAAAACUUUAUGAGCGAAGUGCUGGCACAGGACUUACAACAGAGGAUUGAGCAUCA

Each binder was assayed against T1, UNK ZnF1-3 (assay: nsRBNS (natural sequence RNA bind-n-seq); RBNS binding buffer (assumed for nsRBNS): 25 mM Tris pH 7.5, 150 mM KCl, 3 mM MgCl2, 0.01% Triton X-100, 500 ug/ml BSA, 20 U/ml SUPERase-In, 4 C; UNK is unkempt and MSI1 is Musashi-1; names of the RNAs are library labels; protein concentration not given here; high values mean tight binding).

| Binder | binding signal [enrichment R] |
| --- | --- |
| B1 | 1.28 |
| B2 | 0.673 |
| B3 | 0.284 |
| B4 | 0.666 |
| B5 | 0.963 |
| B6 | 1.44 |
| B7 | 0.881 |
| B8 | 0.233 |
| B9 | 0.786 |
| B10 | 0.591 |
| B11 | 0.644 |
| B12 | 0.735 |
| B13 | 1.07 |
| B14 | 0.82 |
| B15 | 0.319 |
| B16 | 1.41 |
| B17 | 0.879 |
| B18 | 0.754 |
| B19 | 0.701 |
| B20 | 1.25 |
| B21 | 0.361 |
| B22 | 1.51 |
